{"source": "paper PMC4336329", "about": "(PLoS ONE, 2015)", "note": "Screen size: about 310,000 compounds; about 2,200 (0.71%) showed an effect of 50% or more. Effects have a minus sign here. The list shows a part of the results.", "data": [{"target": "human ether-à-go-go-related gene (hERG) potassium channel (human, UniProt Q12809)", "sequence (Q12809 whole entry, looked up)": "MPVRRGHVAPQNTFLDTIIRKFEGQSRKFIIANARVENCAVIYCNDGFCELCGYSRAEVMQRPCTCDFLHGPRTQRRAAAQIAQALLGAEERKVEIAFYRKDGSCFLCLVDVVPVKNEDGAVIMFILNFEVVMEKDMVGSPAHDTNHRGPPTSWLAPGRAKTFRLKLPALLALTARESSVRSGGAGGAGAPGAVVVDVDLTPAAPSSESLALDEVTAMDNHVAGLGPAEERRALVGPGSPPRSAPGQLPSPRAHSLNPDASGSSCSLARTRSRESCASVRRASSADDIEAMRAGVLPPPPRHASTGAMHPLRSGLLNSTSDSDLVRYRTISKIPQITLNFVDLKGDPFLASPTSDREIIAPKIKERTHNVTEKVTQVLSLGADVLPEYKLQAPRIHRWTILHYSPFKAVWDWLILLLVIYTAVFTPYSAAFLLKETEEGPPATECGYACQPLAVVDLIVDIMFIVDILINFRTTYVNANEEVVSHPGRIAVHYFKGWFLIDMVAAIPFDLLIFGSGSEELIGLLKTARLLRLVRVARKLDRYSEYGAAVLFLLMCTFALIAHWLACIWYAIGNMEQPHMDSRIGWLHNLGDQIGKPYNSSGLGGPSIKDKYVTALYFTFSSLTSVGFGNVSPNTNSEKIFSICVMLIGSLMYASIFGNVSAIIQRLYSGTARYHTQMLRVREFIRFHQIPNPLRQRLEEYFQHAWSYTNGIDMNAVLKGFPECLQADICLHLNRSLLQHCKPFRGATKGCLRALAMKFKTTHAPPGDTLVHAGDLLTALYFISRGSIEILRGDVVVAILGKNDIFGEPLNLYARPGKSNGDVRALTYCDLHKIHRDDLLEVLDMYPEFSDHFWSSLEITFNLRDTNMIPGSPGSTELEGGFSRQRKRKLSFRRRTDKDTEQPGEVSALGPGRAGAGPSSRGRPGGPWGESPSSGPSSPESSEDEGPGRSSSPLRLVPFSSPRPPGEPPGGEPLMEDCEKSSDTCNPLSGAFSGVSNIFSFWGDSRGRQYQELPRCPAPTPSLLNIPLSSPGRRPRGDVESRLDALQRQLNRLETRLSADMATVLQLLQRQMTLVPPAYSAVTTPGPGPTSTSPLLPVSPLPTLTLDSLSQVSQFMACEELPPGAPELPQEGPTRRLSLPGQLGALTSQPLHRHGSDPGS", "test": "primary screen, population patch clamp on CHO cells stably expressing hERG", "units": {"hERG current change (%, negative = inhibition) at 1uM": "%"}, "values": [{"smiles": "Cc1[nH]c(=O)[nH]c(=O)c1NC(=O)c1cccs1", "hERG current change (%, negative = inhibition) at 1uM": 9.62}, {"smiles": "CCCN1CCC(=O)N([C@H](COc2ccccc2)Cc2ccccc2)CC1", "hERG current change (%, negative = inhibition) at 1uM": -52.4}, {"smiles": "O=C(c1ccc(F)cc1)C1CCN(C(=O)NC2CCCCC2)CC1", "hERG current change (%, negative = inhibition) at 1uM": 2.12}, {"smiles": "Cn1c(SCc2nnc(-c3ccccc3Br)o2)nc2sc3c(c2c1=O)CCC3", "hERG current change (%, negative = inhibition) at 1uM": 18.1}, {"smiles": "CC(CCN1CCN=C1N(C)C)c1ccccc1", "note": "(stereo not shown)", "hERG current change (%, negative = inhibition) at 1uM": 1.25}, {"smiles": "O=C(NCCCn1ccnc1)C(=O)c1c[nH]c2ccccc12", "hERG current change (%, negative = inhibition) at 1uM": 3.2}, {"smiles": "Cc1noc(C)c1S(=O)(=O)N1CCC(C(=O)NC2CCN(Cc3ccccc3)CC2)CC1", "hERG current change (%, negative = inhibition) at 1uM": -2.52}, {"smiles": "CC(C)(Oc1ccc(Cl)cc1)C(=O)OCC(=O)N1CCCC1", "hERG current change (%, negative = inhibition) at 1uM": 12.3}, {"smiles": "COc1cccc(NC(=O)C(Sc2nnc(-c3ccncc3)n2-c2ccc(Cl)cc2)c2ccccc2)c1", "note": "(stereo not shown)", "hERG current change (%, negative = inhibition) at 1uM": 4.74}, {"smiles": "CC1c2nc3ccccc3n2C(CC(=O)NC2CC2)C(=O)N1Cc1ccccc1", "note": "(stereo not shown)", "hERG current change (%, negative = inhibition) at 1uM": 14.3}, {"smiles": "COc1ccc(C=O)cc1OS(=O)(=O)c1ccc(NC(C)=O)cc1", "hERG current change (%, negative = inhibition) at 1uM": 7.57}, {"smiles": "Cc1c(Cc2ccccc2)c(=O)oc2cc(OC(C)C(=O)NCC3CCC(C(=O)O)CC3)c(Cl)cc12", "note": "(stereo not shown)", "hERG current change (%, negative = inhibition) at 1uM": 24.8}, {"smiles": "COc1ccc(S(=O)(=O)N2CCC(C(=O)N3CCOCC3)CC2)cc1", "hERG current change (%, negative = inhibition) at 1uM": 11.4}, {"smiles": "O=C(O)C(O)Cc1c[nH]c2ccccc12", "note": "(stereo not shown)", "hERG current change (%, negative = inhibition) at 1uM": 14}, {"smiles": "CS(=O)(=O)N(CC(=O)NC1CC2CCC1C2)c1ccc(Oc2ccccc2)cc1", "note": "(stereo not shown)", "hERG current change (%, negative = inhibition) at 1uM": 9.57}, {"smiles": "O=C(COc1ccc(S(=O)(=O)NCc2ccccc2)cc1Cl)NCC1CCCO1", "note": "(stereo not shown)", "hERG current change (%, negative = inhibition) at 1uM": -15.8}, {"smiles": "O=C(Oc1ccc(Br)cc1C(=S)N1CCOCC1)c1ccc([N+](=O)[O-])cc1[N+](=O)[O-]", "hERG current change (%, negative = inhibition) at 1uM": 9.22}, {"smiles": "CN1CCN(CCCCOc2cccc3ccccc23)CC1.Cl", "hERG current change (%, negative = inhibition) at 1uM": 4.07}, {"smiles": "O=C(CS(=O)(=O)Cc1ccccc1)Nc1ccc(Cl)cn1", "hERG current change (%, negative = inhibition) at 1uM": 2.58}, {"smiles": "CC(C)=N/N=C1\\NC(=O)C(C)S1", "note": "(stereo not shown)", "hERG current change (%, negative = inhibition) at 1uM": 9.38}, {"smiles": "O=C(COC(=O)CCc1ccc(S(=O)(=O)N2CCCCC2)cc1)Nc1cccc2ccccc12", "hERG current change (%, negative = inhibition) at 1uM": -5.31}, {"smiles": "COc1ccccc1-c1c(C)oc2c(CN3CCCCC3C)c(O)ccc2c1=O", "note": "(stereo not shown)", "hERG current change (%, negative = inhibition) at 1uM": 6.58}, {"smiles": "CCOC(=O)N1CCN(C(=O)CSc2nc(-c3cccc(C)c3)ns2)CC1", "hERG current change (%, negative = inhibition) at 1uM": 9.77}, {"smiles": "COC(CCN(C)C)(c1ccccc1)c1ccccc1", "hERG current change (%, negative = inhibition) at 1uM": 10.4}, {"smiles": "CCCCCSc1nc(N2CCOCC2)c2c(c1C#N)CC(C)(C)OC2", "hERG current change (%, negative = inhibition) at 1uM": 5.34}, {"smiles": "COc1ccc(C(CC(=O)c2ccccc2)C2CCCCC2=O)cc1", "note": "(stereo not shown)", "hERG current change (%, negative = inhibition) at 1uM": 5.25}, {"smiles": "COC(=O)COc1ccc(S(=O)(=O)NCc2cccnc2)cc1C", "hERG current change (%, negative = inhibition) at 1uM": 14.5}, {"smiles": "O=[N+]([O-])c1ccc(Oc2ccc(S(=O)(=O)N3CCCCC3)cc2)cc1", "hERG current change (%, negative = inhibition) at 1uM": -4.52}, {"smiles": "CCCCN1C(=O)C(=O)N(CC(=O)Nc2cc(OCC)c(N3CCOCC3)cc2OCC)C1=O", "hERG current change (%, negative = inhibition) at 1uM": 1.17}, {"smiles": "O=C(Nc1ccc(Br)cc1)c1ccc2ncsc2c1", "hERG current change (%, negative = inhibition) at 1uM": 9.89}, {"smiles": "CCCCC1CCC(C(=O)Nc2ccc(N3CCOCC3)cc2N2CCOCC2)CC1", "note": "(stereo not shown)", "hERG current change (%, negative = inhibition) at 1uM": 4.2}, {"smiles": "S=C(NC1CCCC1)N1CCN(c2ncccn2)CC1", "hERG current change (%, negative = inhibition) at 1uM": 6.59}, {"smiles": "COc1ccc([N+](=O)[O-])cc1NC(=S)NC(=O)C(C)(C)C", "hERG current change (%, negative = inhibition) at 1uM": 13}, {"smiles": "COC(=O)c1[nH]c2cc(OC)ccc2c1NC(=O)c1c(F)cccc1F", "hERG current change (%, negative = inhibition) at 1uM": 11.3}, {"smiles": "Cc1ccc(CN2C(=O)CNC2=S)cc1", "hERG current change (%, negative = inhibition) at 1uM": 7.76}, {"smiles": "Cn1cc(C(=O)Nc2ccc(Cl)c(Cl)c2)cn1", "hERG current change (%, negative = inhibition) at 1uM": -0.514}, {"smiles": "c1cn(-c2ncnc3sc4c(c23)CCCC4)cn1", "hERG current change (%, negative = inhibition) at 1uM": 2.4}, {"smiles": "C=CCNC(=O)c1onc(CSc2cccc3ccccc23)c1C(=O)O", "hERG current change (%, negative = inhibition) at 1uM": 14.6}, {"smiles": "COC(=O)Cc1ccc(OC(=O)CCS(=O)(=O)c2ccc(Cl)cc2)cc1", "hERG current change (%, negative = inhibition) at 1uM": 21}, {"smiles": "O=C(CN1C(=O)/C(=C/c2ccccc2F)Sc2ccccc21)NCc1cccnc1", "hERG current change (%, negative = inhibition) at 1uM": 4.27}, {"smiles": "CC(C)(CNC(=O)CCC1CCCC1)CNC(=O)CCC1CCCC1", "hERG current change (%, negative = inhibition) at 1uM": 6.33}, {"smiles": "O=C(c1ccc(N2CCOCC2)c([N+](=O)[O-])c1)N1CCCC(C(F)(F)F)C1", "note": "(stereo not shown)", "hERG current change (%, negative = inhibition) at 1uM": 12.3}, {"smiles": "Cc1cc(OC(=O)c2ccc3ccccc3c2)c([N+](=O)[O-])c(=O)[nH]1", "hERG current change (%, negative = inhibition) at 1uM": 17.3}, {"smiles": "Cc1ccc(C(=O)Nc2ccccc2N2CCCCC2)cc1[N+](=O)[O-]", "hERG current change (%, negative = inhibition) at 1uM": 4.65}, {"smiles": "CC1(C)CN=C(Nc2nc3ccccc3s2)S1", "hERG current change (%, negative = inhibition) at 1uM": -1.46}, {"smiles": "NC1=NC(=Nc2ccccc2)c2ccccc21", "hERG current change (%, negative = inhibition) at 1uM": 10.5}, {"smiles": "Cc1cc(C)cc(OCC(=O)O/N=C(\\N)c2ccccn2)c1", "hERG current change (%, negative = inhibition) at 1uM": -1.71}, {"smiles": "O=C(CSc1ncnc2c1cnn2-c1ccc(F)cc1)NCC1CCCO1", "note": "(stereo not shown)", "hERG current change (%, negative = inhibition) at 1uM": 13.3}, {"smiles": "O=C1NC(=O)C(=Cc2ccc(Sc3ccccc3)o2)C(=O)N1", "hERG current change (%, negative = inhibition) at 1uM": 11.9}, {"smiles": "COc1ccc(C2C(C#N)=C(C)NC(C)=C2C#N)c(OC)c1", "hERG current change (%, negative = inhibition) at 1uM": 1.41}, {"smiles": "CCCOc1ccc(CNC(=S)NCc2ccc(OC(C)C)cc2)cc1", "hERG current change (%, negative = inhibition) at 1uM": 2.6}, {"smiles": "CN(CCO)c1ccc(/C=N/Nc2nncc3ccccc23)cc1", "hERG current change (%, negative = inhibition) at 1uM": 9.07}, {"smiles": "Cc1cc(C)c(S(=O)(=O)N2CCCOC2CNC(=O)C(=O)NCc2ccccn2)c(C)c1", "note": "(stereo not shown)", "hERG current change (%, negative = inhibition) at 1uM": 6.84}, {"smiles": "COc1ccccc1-c1nnc(C2CCN(S(=O)(=O)c3ccccc3[N+](=O)[O-])CC2)o1", "hERG current change (%, negative = inhibition) at 1uM": -12.7}, {"smiles": "CCn1c(=O)c(C(=O)NNC(=O)c2ccccc2Cl)c(O)c2ccccc21", "hERG current change (%, negative = inhibition) at 1uM": 11}, {"smiles": "O=C(NCCCN1CCCC1)C1CCC(=O)N1C1CCCCC1", "note": "(stereo not shown)", "hERG current change (%, negative = inhibition) at 1uM": 11.9}, {"smiles": "Cc1cc(=O)oc2cc(OCC(O)Cn3ccnc3)ccc12", "note": "(stereo not shown)", "hERG current change (%, negative = inhibition) at 1uM": 11.8}, {"smiles": "COc1ccc(CNC(=O)CN(C(=O)CCC(=O)Nc2ccccn2)c2ccc(C)cc2)cc1", "hERG current change (%, negative = inhibition) at 1uM": -5.45}]}]}
